Experimental findings from publication PMC5836133 are described below.

The other results are listed elsewhere or left out. At the low end of the ranking the order means little.

For this experiment, the system named is T1, GST-NbGlk1(82-244).
T1 sequence: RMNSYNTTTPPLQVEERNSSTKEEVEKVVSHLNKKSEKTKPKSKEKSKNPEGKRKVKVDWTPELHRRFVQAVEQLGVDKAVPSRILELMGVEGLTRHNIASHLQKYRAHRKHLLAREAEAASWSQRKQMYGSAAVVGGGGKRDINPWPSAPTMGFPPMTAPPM
In words: protein-binding microarray.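 Further: rank-based score ranging −0.5 to +0.5 with E above 0.45 taken as significant binding.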 Conditions: NbGlk1 is a Golden2-like transcription factor of Nicotiana benthamiana; high values mean tight binding; most listed sequences are background and not binding sites; double strand, one strand shown.
Consider AGCTATAT, for which the binding signal was 0.0883 E-score.
On to ACAGTAAT, for which the binding signal stood at 0.217 E-score.
Next, ATACCCAT: 0.151 E-score; AACGATCC: 0.186 E-score.
Regarding AACAGATA, the binding signal worked out at 0.271 E-score.
As for CAGCCATG, the binding signal is -0.244 E-score.
ACGCTAGC: the binding signal was -0.175 E-score.
Turning to AATATATG, the binding signal is 0.252 E-score.
Next, ATCTGCTG: 0.291 E-score; AACACCTC: -0.0127 E-score; CAATGTGG: -0.136 E-score.
Next, AGTCTCCG: -0.27 E-score; ACCCACAT: -0.0499 E-score; AAGTATAG: -0.0105 E-score.
ACGGGATA: the binding signal was 0.144 E-score.
On to AAACCGGG, for which the binding signal is -0.0679 E-score.
The sequence CAACCGCA yielded a binding signal of -0.0718 E-score.
AAACGACC gave a binding signal of -0.218 E-score.
Under AGTATCTA stands 0.305 E-score; under ATCGTCCA, 0.0817 E-score.
For ATGAGTTC, the binding signal was -0.0817 E-score.
AAATCTAT gave a binding signal of 0.419 E-score.
Sequence ATGTCTGC registered a binding signal of -0.111 E-score.
The sequence CACGAGAG came in with a binding signal of -0.112 E-score.
The sequence AGGTCTCA gave a binding signal of -0.308 E-score.
On to ACCAGCGC, for which the binding signal is -0.232 E-score.
AGGGCTAT came in with a binding signal of -0.113 E-score.
Under AGCTAGAG stands -0.226 E-score.
Under ACAACCTA stands -0.187 E-score; under ACGGGCCC, -0.263 E-score; under ACGGCGAC, -0.181 E-score.
Under AGTCTCAA stands 0.0516 E-score; under AAAACCCC, -0.262 E-score.
In turn, ACACGAGT returned a binding signal of -0.0708 E-score.
Regarding AACATCAA, the binding signal is -0.0122 E-score.
Turning to AGACTACA, the binding signal was -0.199 E-score.
Sequence AAAAATAG gave a binding signal of -0.0519 E-score.
Turning to CAACATGG, the binding signal is -0.0683 E-score.
Regarding ACTTCTAA, the binding signal is 0.063 E-score.
ACCCGGGT returned a binding signal of -0.246 E-score.
As for ATATTTAC, the binding signal worked out at 0.251 E-score.
Turning to ATCTGAAA, the binding signal turned out to be 0.284 E-score.
ACATTGAG gave a binding signal of -0.000637 E-score.
On to AGCAAGTG, for which the binding signal was -0.0454 E-score.
Take ATAGGGTC: the binding signal is -0.188 E-score.
Regarding AACTAATC, the binding signal is -0.0806 E-score.
For ACACGATC, the binding signal came to 0.307 E-score.
For ACACGTTG, the binding signal is -0.214 E-score.
Next, ACTTCTCA: 0.023 E-score; ACGGATGG: -0.115 E-score; AACCGTCA: -0.177 E-score.
Sequence ACCTTTTG displayed a binding signal of -0.0927 E-score.
Next, CAACTAGG: -0.025 E-score; AGACCACT: -0.173 E-score; ATTCAGGG: 0.0522 E-score.
Take AAAAGATT: the binding signal was determined as 0.388 E-score.
Under AGGTAACC stands -0.16 E-score.
On to AAAATAGA, for which the binding signal came to 0.152 E-score.
Consider AGACGAGC, for which the binding signal was -0.242 E-score.
ACAGCCGG yielded a binding signal of -0.248 E-score.
ACTGCCAT gave a binding signal of -0.163 E-score.
CAATAAAA had a binding signal of 0.101 E-score.
ATATCGCG registered a binding signal of 0.415 E-score.
Turning to ACTGGCGC, the binding signal was -0.185 E-score.
In turn, AGCTGATC came in with a binding signal of -0.0207 E-score.
ACAATTTC returned a binding signal of 0.188 E-score.
AGCTCTAC yielded a binding signal of -0.136 E-score.
In the case of ACGTAAGC, the binding signal is -0.031 E-score.
The sequence AGGGGCAG yielded a binding signal of -0.208 E-score.
ACCGCCGC returned a binding signal of -0.216 E-score.
Take AACCCACC: the binding signal was -0.0964 E-score.
In the case of AGGTAATA, the binding signal was found to be 0.0321 E-score.
Next, ATTTGATA: 0.229 E-score; AAGCAAAC: -0.0763 E-score.
Consider AGGATGCG, for which the binding signal is -0.0637 E-score.
Next, ACTCTGCA: -0.141 E-score; ACGTTTGA: 0.0239 E-score; AAACACCA: -0.14 E-score.
Consider ATAAGGCA, for which the binding signal turned out to be 0.008 E-score.
On to AGTAGACG, for which the binding signal was -0.135 E-score.
On to CACATCAC, for which the binding signal was -0.0541 E-score.
Under AGCGTTAT stands 0.0607 E-score; under ATTATGGG, -0.0105 E-score.
Under AATTAAAA stands 0.101 E-score.
Sequence CACGCACC showed a binding signal of -0.129 E-score.
As for ATTTGCTA, the binding signal was determined as 0.166 E-score.
Next, CAAGCCAC: -0.244 E-score; AGTAAGCG: 0.0463 E-score.
On to AGTGTTTA, for which the binding signal is -0.00854 E-score.
In turn, ATATGTTC gave a binding signal of 0.119 E-score.
The sequence AATGGTTG displayed a binding signal of -0.0741 E-score.
For the sequence ACGATAGT, the binding signal turned out to be 0.0795 E-score.
On to CAATAACC, for which the binding signal was -0.0686 E-score.
The sequence ACAATTCA gave a binding signal of 0.0542 E-score.
The sequence ACTCACTA showed a binding signal of 0.0221 E-score.
AAAGCACA displayed a binding signal of 0.0176 E-score.
Under AGTTACAA stands 0.0865 E-score; under AGTTAAAG, -0.00654 E-score.
For CAGCGCCG, the binding signal was -0.221 E-score.
Under ATACCGTG stands -0.0694 E-score; under ATTGCGAA, 0.312 E-score.
Consider CAAACCGG, for which the binding signal is -0.0496 E-score.
Under AGATTCTC stands 0.49 E-score; under CAGACTCC, -0.278 E-score; under AAGATGGA, -0.114 E-score.
Take ATGCATAA: the binding signal was found to be 0.131 E-score.
On to CAACGACG, for which the binding signal is -0.0596 E-score.
Under AATACATG stands 0.0338 E-score.
As to ATGGCGAG, the binding signal is -0.0265 E-score.
Sequence AAGTAGAC gave a binding signal of -0.115 E-score.
Consider AACGGATC, for which the binding signal was determined as 0.25 E-score.
In turn, ATCGTCAA gave a binding signal of 0.231 E-score.
ACAATGAC: the binding signal was -0.16 E-score.
Sequence AGGCCGAG registered a binding signal of -0.0882 E-score.
Sequence CACTAGGA returned a binding signal of 0.0141 E-score.
Take AATTCCTA: the binding signal was 0.167 E-score.
In turn, AGCATCGG showed a binding signal of -0.0878 E-score.
In the case of CAATTGCG, the binding signal stood at 0.125 E-score.
Consider ATTAACTA, for which the binding signal was -0.00616 E-score.
As for ACACACGT, the binding signal is -0.131 E-score.
For AGTCACCC, the binding signal was -0.0747 E-score.
AGCGGAAC came in with a binding signal of -0.118 E-score.
ATGGCCCA showed a binding signal of -0.241 E-score.
In the case of CAGCCTCG, the binding signal is -0.213 E-score.
CAAAATTC: the binding signal turned out to be 0.193 E-score.
Next, ACATTGTA: -0.0769 E-score; ACCGCTGC: -0.212 E-score; AGTTTAGA: 0.165 E-score.
With AGTCGGTC, the binding signal is -0.223 E-score.
In turn, AGCACCCG yielded a binding signal of -0.294 E-score.
Under AGAAGGGG stands -0.191 E-score; under ACGCACCT, -0.167 E-score.
In turn, AGTTATAA showed a binding signal of 0.0355 E-score.
Consider CAATACAC, for which the binding signal turned out to be 0.0913 E-score.
As to AAGAGCTC, the binding signal is -0.362 E-score.
On to AAATGTGG, for which the binding signal was 0.0652 E-score.
With AGTACTAT, the binding signal was -0.00957 E-score.
Sequence ATCTTTAA displayed a binding signal of 0.259 E-score.
As for ATACCGAG, the binding signal amounted to 0.0757 E-score.
For the sequence AATCTTTG, the binding signal worked out at 0.378 E-score.
Next, ATGTGGCA: -0.0851 E-score; AGCTGGCC: -0.346 E-score; CAAGCTCG: -0.152 E-score.
In turn, AGAAATAA returned a binding signal of 0.185 E-score.
AGTGATGC had a binding signal of 0.0715 E-score.
With ACTTGTCT, the binding signal was -0.0907 E-score.
For the sequence CAGCAAGG, the binding signal is -0.077 E-score.
On to ATTCGACG, for which the binding signal stood at 0.153 E-score.
ACATTCGG: the binding signal was -0.0432 E-score.
In the case of CAGAACAG, the binding signal was -0.115 E-score.
ATAAGCTA showed a binding signal of -0.0196 E-score.
With CACAAGTA, the binding signal is 0.0812 E-score.
Consider ACTATCGG, for which the binding signal worked out at 0.0387 E-score.
Next, CAAACCCC: -0.307 E-score; ACTCCCAC: -0.131 E-score; ACTGTTCG: -0.0298 E-score.
Sequence ACATGGGA registered a binding signal of 0.0526 E-score.
Under AAGATGCA stands -0.103 E-score; under CAACCGTG, -0.0713 E-score; under ACGCGGAG, -0.206 E-score.
The sequence AGAGCCTG gave a binding signal of -0.174 E-score.
Under AGTTGCGG stands -0.036 E-score; under AGAAGCCA, -0.192 E-score.
Consider AACGAGAC, for which the binding signal is -0.0281 E-score.
For the sequence CAAAAGAA, the binding signal stood at 0.00621 E-score.
As to AACAATTG, the binding signal is 0.0413 E-score.
In turn, ATAGTTAC had a binding signal of -0.0488 E-score.
As for CAGCATAA, the binding signal was -0.0585 E-score.
AACCTAGC had a binding signal of -0.146 E-score.
Next, ATGCGGAG: -0.12 E-score.
Take ACAGCCCT: the binding signal is -0.204 E-score.
The sequence ATACCAGC had a binding signal of -0.0161 E-score.
